# In patent US7749983B2, “Metabolically stable alkoxyalkyl esters of antiviral or antiproliferative phosphonates, nucleoside phosphonates and nucleoside phosphates” (priority 2006, dated 2010):
# Settings: Table 5; cell line and method not stated
row,Molecule,CC50
1,14-methyl-pentadecyloxypropyl cidofovir [Compound 14M-PDP-CDV],38 µM
2,17-methyl-octadecyloxyethyl cidofovir [Compound 17M-ODE-CDV],7.5 µM
3,"CC(C)CCCCCCCCCCCCCCOCCOP(=O)(O)CO[C@H](CO)Cn1cnc2c(N)ncnc21 [15M-HDE-HPMPA, 3-(15-methylhexadceyloxy)ethyl (S)-HPMPA]",43 µM
4,"CC(C)CCCCCCCCCCCOCCCOP(=O)(O)CO[C@H](CO)Cn1ccc(N)nc1=O [Compound 12M-TrDP-CDV, 12-methyl-tridecyloxypropyl cidofovir]",82 µM
5,"CC(C)CCCCCCCCCCCCOCCCOP(=O)(O)CO[C@H](CO)Cn1ccc(N)nc1=O [Compound 13M-TDP-CDV, 13-methyl-tetradecyloxypropyl cidofovir]",82 µM
6,"CC(C)CCCCCCCCCCCCCCOCCCOP(=O)(O)CO[C@H](CO)Cn1ccc(N)nc1=O [Compound 15M-HDP-CDV, 15-methyl-hexadecyloxypropyl cidofovir]",18 µM
7,"CCCCCCCCCCCCCCCCOCCOP(=O)(O)COC(CO)Cn1cnc2c(N)ncnc21 (stereo not shown) [HDE-HPMPA, reference compound]",2.5 µM
